Among all 48,000 compounds or so, about 450 (0.94%) were called active. Not shown: some 19% with an inconclusive outcome. The call rests on the fitted dose curve; in most records, active means well fitted inhibition curve with a large enough effect; inconclusive means small, poorly fitted or top-dose-only effect; inactive means no such curve, though single readings can be large or run the other way. The list shows a part of the results.

The assay can be described thus: Primary qHTS for Identification of Small Molecule Inhibitors of Huntingtin Promoter Activity. Further: nearly all actives have a fitted effect of over 50% in size. The following applies: HEK293 HTT promoter firefly luciferase reporter (activity 0% = vehicle and -100% = no light), 24 h; activity change, negative = inhibition: at the top concentration. In a few lines:
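Firefly luciferase signal from promoter-reporter HEK293 cells was scaled between vehicle (0%) and zero RLU (-100%). Compounds were tested at final concentrations of up to 57.5 uM over 24 h at 37 degrees C. PTC124 at 50 uM final served as control inhibitor.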
In general terms: Quantitative high-throughput screening tests each substance at several concentrations.
In the case of `CCOc1ccc(CN(CCc2ccc3c(c2)OCO3)Cc2ccc(OC)c(Br)c2)cc1`, the “activity change, negative = inhibition” value is inactive: -22.3%.
In the case of `Cc1nc2ccccc2c(=O)n1-c1ccccc1Cl` it was inactive: -18.2% [at 116 µM]; in that of `[N-]=[N+]=CC(=O)OC[C@H](N)C(=O)O`, inactive: 4.63%.
The same measure for `CCN(CC)Cc1nccn1-c1ccc([N+](=O)[O-])cc1C(=O)c1ccccc1Cl`: inactive: -5.61%; for `CNC(C)Cc1ccc2c(c1)OCO2` (centres undefined): inactive: 3.06% [at 116 µM]; for `CN(C)C(=O)Oc1cc(OC(=O)N(C)C)cc(C(O)CNC(C)(C)C)c1` (centres undefined): inactive: -2.32%.
Consider `NCCc1ccc(O)cc1`, for which the “activity change, negative = inhibition” value is inactive: 8.87%.
In the case of `Cc1ccc(C(C)C)c(OCC(=O)N2CCN(CCc3ccncc3)CC2)c1` it was inactive: -16.2%; in that of `C[C@@H]1[C@H](O)[C@@H](C)C=CC=CCCC=CC=CC=CC=C[C@H](O[C@H]2O[C@@H](C)[C@H](O)[C@@H](N)[C@@H]2O)CC2O[C@](O)(C[C@@H](O)[C@H](O)CC[C@@H](O)C[C@@H](O)C[C@@H](O)CC(=O)O[C@H]1C)C[C@H](O)[C@H]2C(=O)O`, inactive: 7.9%.
On to `C[C@@H](N)[C@@H](O)c1ccccc1`, for which the “activity change, negative = inhibition” value is inactive: 14.6%.
Consider `CCC1(c2ccc(N)cc2)CCC(=O)NC1=O` (centres undefined), for which the activity change, negative = inhibition entry was “inactive”.
For the molecule `ClC1=C(Cl)[C@]2(Cl)[C@@H]3[C@@H]4C[C@@H]([C@H]5O[C@@H]45)[C@@H]3[C@@]1(Cl)C2(Cl)Cl`, the “activity change, negative = inhibition” value was inactive: 1.58% [at 116 µM].
In the case of `Cc1ccc(C(=O)Nc2ccccc2)cc1S(=O)(=O)N1CCCC1` it was inactive: -19%.
In the case of `O=C(O)c1ccc2[nH]cc(CCCCN3CC=C(c4ccccc4)CC3)c2c1` it was inactive: -4.3%; in that of `Cc1ccccc1-n1c(/C=C/c2ccc(N(C)C)cc2)nc2ccccc2c1=O`, inactive: -21.9%; in that of `O=[N+]([O-])c1cc([As](=O)(O)O)ccc1O`, inactive: 5.54%.
On to `O=C(c1ccc2c(c1)N(Cc1ccc(F)cc1)C(=O)c1ccccc1S2)N1CCC2(CC1)OCCO2`, for which the “activity change, negative = inhibition” value was inactive: -3.86%.
The same measure for `COc1ccc(OCC(=O)N2CCN(Cc3cc(=O)n4nc(-c5ccc(OC)cc5)sc4n3)CC2)cc1`: inactive: -29.5%; for `Cc1ccc(OCC(=O)N2CCN(CCc3ccncc3)CC2)cc1`: inactive: 6.19%.
`CC(C)c1ccc(OCC(=O)N2CCN(CCc3ccccn3)CC2)cc1`: the “activity change, negative = inhibition” value is inactive: -15.8%.
In the case of `C[C@]12CC[C@@H]3c4ccc(OC(=O)N(CCCl)CCCl)cc4CC[C@H]3[C@@H]1CC[C@@H]2O`, the “activity change, negative = inhibition” value was inactive: -7.98%.
In the case of `C[C@H]([C@H](O)CCC(C)(C)O)[C@H]1CC[C@@]2(O)C3=CC(=O)[C@@H]4C[C@@H](O)[C@@H](O)C[C@]4(C)[C@@H]3CC[C@]12C` it was inactive: -7.86%; in that of `CC1N=C(N)OC1c1ccccc1` (centres undefined), inactive: -1.19% [at 116 µM]; in that of `Cc1ccc(OCC(=O)Nc2ccc(Cl)cc2C(=O)c2ccccc2)cc1C`, inactive: -0.999%.
In the case of `COc1cccc(-c2nn3c(=O)cc(CN4CCN(C(=O)COc5ccccc5C)CC4)nc3s2)c1` it was inactive: -10.2%; in that of `CCCCCCCCc1ccc(O)cc1`, inactive: 5.85% [at 116 µM].
Regarding `Cc1nnc(NC(=O)c2cccn(Cc3cccc(F)c3)c2=O)s1`, the “activity change, negative = inhibition” value is inactive: 0%.
In the case of `O=c1oc2ccccc2c(O)c1Cc1c(O)c2ccccc2oc1=O` it was inactive: 4.24%; in that of `CCSc1nnc(NC(=O)c2cccn(Cc3ccccc3Cl)c2=O)s1`, inactive: 7.46%; in that of `CCOc1ccccc1NC(=O)c1cccn(Cc2ccccc2C)c1=O`, inactive: -10.2%.
In the case of `O=C1CN2CCOC2(c2ccccc2Cl)c2cc(Cl)ccc2N1` (centres undefined) it was inactive: -9.53%; in that of `COc1ccc(C(c2c(O)c3ccccc3oc2=O)c2c(C)n(C)n(-c3ccccc3)c2=O)cc1` (centres undefined), inactive: -16.9%.
For `Clc1ccc(CCC(Cn2ccnc2)Sc2c(Cl)cccc2Cl)cc1` (centres undefined), the “activity change, negative = inhibition” value is inactive: -24.1%.
For the molecule `CCC(=O)C(CCN(C)C)(c1ccccc1)c1ccccc1`, the “activity change, negative = inhibition” value was inactive: -4.46%.
The same measure for `CC(=O)c1cccc(NC(=O)c2cccn(Cc3cccc(C)c3)c2=O)c1`: inactive: -20.7%; for `O=C(O)COc1ccccc1`: inactive: 45.6%; for `CC(C)NC(C)C`: inactive: 9.95%.
`O=c1[nH]c2ccccc2n1C1CCNCC1`: the “activity change, negative = inhibition” value was inactive: 4.38%.
Take `NC(=O)CN1CCCC1=O`: the “activity change, negative = inhibition” value was inactive: -3.62%.
Turning to `ClCCN1CCCC1`, the “activity change, negative = inhibition” value is inactive: 3.02%.
The same measure for `N[C@@H](Cc1ccc(Oc2cc(I)c(O)c(I)c2)c(I)c1)C(=O)O`: inactive: 1.02%; for `COC(=O)C(Cl)C(=O)OC`: inactive: -4.36%.
For `Oc1ccc(Cl)cc1`, the “activity change, negative = inhibition” value is inactive: 12.3%.
The same measure for `CC(C)c1c(CN(C)C(C)Cc2ccccc2)n(C)n(-c2ccccc2)c1=O` (centres undefined): inactive: 5.22%.
In the case of `COc1ccc(NC(=O)CN2C(=O)C(C)N=C(c3ccccc3)c3ccccc32)cc1OC` (centres undefined) it was inactive: 4.9%; in that of `Cc1ccc(Cn2cccc(C(=O)Nc3nc4ccc(C)cc4s3)c2=O)cc1`, inactive: -35.4%; in that of `O=P1(NCCCl)OCCCN1CCCl` (centres undefined), “inactive”.
On to `Cc1ccc(OCC(=O)Nc2ccc(Cl)cc2C(=O)c2ccccc2)c(Br)c1`, for which the “activity change, negative = inhibition” value is inactive: 12%.
For `O=S(=O)(c1ccc(Cl)cc1)c1ccc(Cl)cc1`, the “activity change, negative = inhibition” value is inactive: -7.65% [at 116 µM].
The same measure for `O=C1CCC[C@@H]2[C@H]3CCCN4CCC[C@@H](CN12)[C@@H]34`: inactive: 10.3%; for `O=C(Nc1ccon1)c1cccn(Cc2cccc([N+](=O)[O-])c2)c1=O`: inactive: -14.4%; for `O=C(Nc1ccccc1)N(Cc1ccc2c(c1)OCO2)C1CCN(Cc2ccccc2)CC1`: inactive: -15.9%.
On to `Cc1cccc(C)c1NC1=NCCCS1`, for which the “activity change, negative = inhibition” value is inactive: -4.03%.
In the case of `O=C(Nc1ccc2c(c1)OCO2)c1cccn(Cc2ccccc2)c1=O` it was inactive: 15.4%; in that of `CCOC(=O)C1(c2ccccc2)CCN(CCc2ccc(N)cc2)CC1`, inactive: -5.79%.
In the case of `CN1C(=O)COc2c(C(=O)NC3CN4CCC3CC4)cc(Cl)cc21` (centres undefined) it was “inactive”; in that of `Cc1ccc(S(=O)(=O)N[C@@H](CCCCN)C(=O)CCl)cc1`, inactive: 10%.
As for `O=C(Oc1ccc([N+](=O)[O-])cc1)N1CCC(C(O)(c2ccc3c(c2)OCO3)c2ccc3c(c2)OCO3)CC1`, the “activity change, negative = inhibition” value is inactive: -6.54%.
In the case of `O=C1CN=C(c2ccccc2)c2cc([N+](=O)[O-])ccc2N1` it was inactive: -5.21%.
`CCOc1ccc2nc(NC(=O)c3cccn(Cc4ccc(C)cc4)c3=O)sc2c1`: the “activity change, negative = inhibition” value is inactive: -35.2%.
In the case of `CC[N+]1(CCOC(=O)C(O)(c2ccccc2)c2ccccc2)CCCCC1` it was inactive: -3.5%; in that of `O=C(Nc1ccc2c(c1)OCCO2)c1cccn(Cc2ccccc2)c1=O`, inactive: -15.6%; in that of `Cc1c(Cl)c(=O)oc2cc(OP(=O)(OCCCl)OCCCl)ccc12`, inactive: -4.02%.
The same measure for `Cc1ccc(-c2nc(CN3C(=O)CN=C(c4ccccc4Cl)c4cc(Cl)ccc43)c(C)o2)cc1`: inactive: -39%.
`C[N+]1(C)[C@@H]2CC[C@H]1CC(OC(=O)C(CO)c1ccccc1)C2` (some centres undefined): the “activity change, negative = inhibition” value was inactive: 2.5%.
In the case of `Cc1cccc(Cn2cccc(C(=O)Nc3nnc(C)s3)c2=O)c1` it was inactive: -1.05%; in that of `Nc1ccccc1`, inactive: 15.5%.
In the case of `O=C1CC(c2ccc(C(F)(F)F)cc2)c2c(c3ccccc3oc2=O)O1` (centres undefined) it was inactive: -9.16%.
Regarding `Cc1cc(SCc2sc(-c3ccc(C(F)(F)F)c(F)c3)nc2C)ccc1OCC(=O)O`, the “activity change, negative = inhibition” value is inactive: 16.7%.

For the origin of these results see PubChem BioAssay AID1508623 (National Center for Advancing Translational Sciences (NCATS), 2021).
